# Among all 130,000 compounds or so, about 1,900 (1.5%) were called active. Inconclusive means that the source gave no clear call. Such entries were picked first, then a sample of the others. Calls come from the whole dose curve; as a rule, active = well fitted cell-killing curve with a large enough effect; inconclusive = small, poorly fitted or top-dose-only effect; inactive = no such curve, though single readings can be large or run the other way. Where the call is inconclusive, the potency comes from a doubtful curve fit.
# Experiment: qHTS Screen for Compounds that Selectively Target Cancer Cells with p53 Mutations: Cytotoxicity of p53ts Cells at the Nonpermissive Temperature; note: nearly all actives have a fitted effect of over 55% in size
# Settings: H1299-p53A138V viability at 39C, ATP luminescence, 24 h; activity change, negative = cell killing: at 46.1 µM (top of the series)
# % is set by controls: 0 for no effect and ±100 for the full control effect; potency is the fitted concentration of half-maximal effect; tags give direction and shape of the fitted curve.
SMILES,Potency,"activity change, negative = cell killing"
CC(C)(C)c1ccc(C(=O)NCC(c2ccc(Cl)cc2)N2CCOCC2)cc1 (stereo not given),"inconclusive: 31.6 µM [cytotoxic, single point]",–
COc1ccc(OC)c(S(=O)(=O)Nc2cccc(-c3ccc(N4CCCCC4)nn3)c2)c1,"inconclusive: 0.0631 µM [cytotoxic, full curve]",–
CC(C)(C)c1ccc(C(=O)Nc2onc3c2CCCC3)cc1,active: 12.6 µM,–
Cc1ccc(C)c(N2CCN(C(=O)CSCc3ccccc3Cl)CC2)c1,"inconclusive: 20 µM [cytotoxic, partial curve]",–
CC1=C(c2ccc(C(C)C)cc2)S(=O)(=O)N=C1N1CCC(C(=O)NCCc2ccco2)CC1,"inconclusive: 5.01 µM [cytotoxic, partial curve]",–
Cc1ccc(CNC(=O)c2ccc3nc(SCc4ccc(F)cc4)[nH]c3c2)cc1,"inconclusive: 5.01 µM [cytotoxic, full curve, poor fit]",–
CCc1cccc(NC(=O)C(Cc2ccccc2)n2cccc2)c1 (stereo not given),"inconclusive: 31.6 µM [cytotoxic, single point]",–
Cc1ccc(C(=O)Nc2c(C)nc3ccccn3c2=O)cc1C,inactive,–
COc1ccc(/C=C/C(=O)Nc2nc(-c3cccs3)ns2)cc1OC,"inconclusive: 1.26 µM [cytotoxic, partial curve]",–
CCN(CC(=O)NC(C)(C)C)C(=O)CCl,"inconclusive: 35.5 µM [cytotoxic, single point]",–
CCN(c1ccccc1)S(=O)(=O)c1c(-c2ccc(C)cc2)csc1C(=O)OC,"inconclusive: 14.1 µM [cytotoxic, partial curve, poor fit]",–
Nc1nc2ccc(-c3nc4ccccc4o3)cc2s1,"inconclusive: 12.6 µM [cytotoxic, single point]",–
O=C(COc1ccc(Cl)cc1)OCc1cc(=O)n2nc(C3CC3)sc2n1,"inconclusive: 0.01 µM [cytotoxic, full curve, poor fit]",–
Cc1nc(-c2ccc(NC(=O)c3cccs3)cc2)cs1,active: 2.51 µM,–
CCc1ccc(CNC(=O)c2cnc3sc(N4CCOCC4)nn3c2=O)cc1,inactive,–
COc1ccc(Cl)cc1NC(=O)N1CCN(Cc2cc(=O)n3nc(-c4ccccc4)sc3n2)CC1,inactive,–
N#CCc1nc(CSc2nc3ccccc3o2)cs1,inactive,–
Cc1nc2cccnc2n1-c1cccc(C(=O)NCCN(C)C)c1,"inconclusive: 0.0126 µM [cytotoxic, full curve, poor fit]",–
CCCS(=O)(=O)Nc1cccc(-c2cn3ccc(C)cc3n2)c1,"inconclusive: 15.8 µM [cytotoxic, single point]",–
COc1ccc(CNc2cc(-c3ccccc3Cl)ncn2)c(OC)c1,inactive,–
CCOc1ccc(/C=C/c2nc(C#N)c(NC(C)c3ccccc3)o2)cc1 (stereo not given),"inconclusive: 10 µM [cytotoxic, partial curve]",–
COc1ccc(C(=O)CC2(O)C(=O)N(Cc3cccc(C(F)(F)F)c3)c3ccccc32)cc1 (stereo not given),"inconclusive: 15.8 µM [cytotoxic, single point]",–
CCCCc1ccc(NC(=O)c2ccc3c(c2)CCN3S(=O)(=O)CC)cc1,inactive,–
Cc1ccc(CNC(=O)Cc2csc3ccccc23)cc1,"inconclusive: 7.94 µM [cytotoxic, partial curve]",–

SMILES,Potency,"activity change, negative = cell killing"
CCOC(=O)c1cccc(NC(=O)c2oc3c(c2C)-c2nn(CC)cc2CC3)c1,"inconclusive: 31.6 µM [cytotoxic, single point]",–
O=C(CCS(=O)(=O)c1ccccc1)N(Cc1cccnc1)c1nc2ccc(F)cc2s1,"inconclusive: 31.6 µM [cytotoxic, single point]",–
COc1ccc(-c2cnc(C)o2)cc1S(=O)(=O)Nc1ccc(OC(F)(F)F)cc1,"inconclusive: 35.5 µM [cytotoxic, single point]",–
Cc1ccc(-n2c(=O)c3c(c4cc(C)ccc4n3C)n(CC(=O)c3ccc(Cl)cc3)c2=O)cc1,"inconclusive: 0.02 µM [cytotoxic, full curve, poor fit]",–
C=C1C(=O)C=C2CN(C(=O)c3ccccc3)[C@@](Cc3ccc(F)cc3)(C(=O)OC)[C@@H]12,active: 3.16 µM,–
C(=N\Nc1nc2ccccc2s1)/c1ccc2c(c1)OCO2,"inconclusive: 10 µM [cytotoxic, single point]",–
CCCn1c(=O)c2ccccc2n2c(SCC(=O)NCc3cccs3)nnc12,inactive,–
O=C(CS(=O)(=O)c1cccc2nsnc12)NCc1ccccc1,–,inconclusive: -30.6% [cytotoxic]
Cc1cc(=O)[nH]c(SCCOc2ccc(OC(C)C)cc2)n1,"inconclusive: 20 µM [cytotoxic, single point]",–
O=C(CSc1nccn1C1CCCC1)Nc1cc(C(F)(F)F)ccc1Cl,"inconclusive: 15.8 µM [cytotoxic, single point]",–
CN1CCN(Cc2nc3c(c(=O)n(C)c(=O)n3C)n2Cc2ccccc2Cl)CC1,"inconclusive: 15.8 µM [cytotoxic, partial curve]",–
CN(C(=O)CSc1nnc(COc2ccccc2)o1)c1ccccc1,inactive,–
CCC(C)c1ccc(NC(=O)C2CCN(c3ccc(C(F)(F)F)cn3)CC2)cc1 (stereo not given),"inconclusive: 0.0141 µM [cytotoxic, full curve, poor fit]",–
CS(=O)(=O)Nc1ccc(Nc2c3ccccc3nc3ccccc23)cc1,–,inactive: 3.23% [at 9.22 µM]
CCCOC(=O)CSc1nnc(-c2ccccc2)o1,"inconclusive: 20 µM [cytotoxic, partial curve, poor fit]",–
COc1ccc(C2=NCC(CSc3nccc(=O)[nH]3)S2)cc1 (stereo not given),inactive,–
Cn1nc(C(=O)N2CCN(c3ccccc3F)CC2)c2c1-c1ccccc1S(=O)(=O)C2,"inconclusive: 3.98 µM [cytotoxic, partial curve]",–
COc1ccc(NC(=O)CCNS(=O)(=O)c2ccc3c(c2)CCCC(=O)N3)cc1,inactive,–
COc1ccc(NC(=O)CC2C(=O)N(c3cccc(OC)c3)C(=O)N2CCC2=CCCCC2)cc1 (stereo not given),"inconclusive: 0.631 µM [cytotoxic, full curve, poor fit]",–
CCCCOc1ccc(C(=O)NCc2cn3cccc(C)c3n2)cc1,inactive,–
Cn1c(-c2ccc3ccccc3n2)nc2cnccc21,"inconclusive: 12.6 µM [cytotoxic, single point]",–
Cc1ccc(NC(=O)/C=C/c2ccco2)cc1F,"inconclusive: 10 µM [cytotoxic, partial curve]",–
Cn1nnnc1Sc1ncnc2scc(-c3ccccc3)c12,"inconclusive: 31.6 µM [cytotoxic, single point]",–
COc1ccc(-c2nc3cnc(N4CCNCC4)nc3n(Cc3cccc(OC)c3)c2=O)cc1,"inconclusive: 25.1 µM [cytotoxic, single point]",–

SMILES,Potency,"activity change, negative = cell killing"
FC(F)(F)c1cc(Nc2nc3ccccc3c3nncn23)ccc1Cl,"inconclusive: 31.6 µM [cytotoxic, single point]",–
Nc1ncnc2c1ncn2[C@@H]1O[C@@H](CO)[C@H](O)[C@@H]1O,inactive,–
Cc1c(C(=O)Nc2ccc(F)c(Cl)c2)sc2nc3n(c(=O)c12)CCC3,inactive,–
O=C(C1CC1)N1CCc2cc(Br)cc(S(=O)(=O)Nc3ccc(F)c(F)c3)c21,"inconclusive: 25.1 µM [cytotoxic, single point]",–
COc1ccc2cc(C(=O)CCC(=O)O)ccc2c1,–,inactive: -16.5% [at 9.22 µM]
CCOc1ccc(NC(=O)c2cnccn2)cc1,"inconclusive: 11.2 µM [cytotoxic, partial curve]",–
Cn1c(=NC(=O)c2cnccn2)sc2ccccc21,active: 10 µM,–
Cn1cc(SCC(=O)NCc2ccc3c(c2)OCO3)c2ccccc21,inactive,–
CC(=O)Nc1cccc(NC(=O)CSc2ccc(-c3sc(-c4ccccc4)nc3C)nn2)c1,active: 7.94 µM,–
O=C(Nc1ccc2c(c1)OCCO2)c1ccc(CN2CCOCC2)cc1,"inconclusive: 10 µM [cytotoxic, partial curve]",–
O=C(Nc1ccc(N2CCCCC2)cc1)c1ccc(F)cc1,"inconclusive: 3.16 µM [cytotoxic, partial curve]",–
Cc1cc(C)n2nc(CNS(=O)(=O)c3ccccc3)nc2n1,inactive,–
Cc1ccc(NC(=O)c2ccc3snnc3c2)cc1C,"inconclusive: 31.6 µM [cytotoxic, partial curve]",–
COC(=O)CC(=O)CSc1nc2cc(C(=O)NCC(C)C)ccc2c(=O)n1CCc1ccccc1,"inconclusive: 3.16 µM [cytotoxic, partial curve]",–
CC(C)(CC(=O)Nc1ccccc1)C(=O)O,–,inactive: 8.77% [at 9.22 µM]
COc1cccc(NC(=O)CSc2c3c(nc4ccccc24)CCCC3)c1,"inconclusive: 31.6 µM [cytotoxic, single point]",–
CC(C)(CO)NCC(O)COc1ccc2c(c1)CCC2 (stereo not given),inactive,–
CCOc1ccc(-c2cc(C(=O)NCCc3ccc(OC)c(OC)c3)c3c(-c4ccc(F)cc4)[nH]nc3n2)cc1,"inconclusive: 12.6 µM [cytotoxic, partial curve]",–
Cc1cccc(OCCCn2c(CCNC(=O)C3CCCCC3)nc3ccccc32)c1,"inconclusive: 25.1 µM [cytotoxic, single point]",–
COc1ccccc1CN(Cc1c(Cl)cccc1Cl)S(=O)(=O)c1ccc(Br)cc1,"inconclusive: 50.1 µM [cytotoxic, partial curve, poor fit]",–
COc1ccccc1C(=O)Nc1ccc(S(=O)(=O)Nc2ncccn2)cc1,inactive,–
O=C(/C=C/Nc1ccccc1C(=O)O)c1cccs1,"inconclusive: 25.1 µM [cytotoxic, single point]",–
